PMC12040169 (PLOS Biology, 2025)
The list shows a part of the results.

Test system: T1, C. trachomatis L2/434/Bu expressing GFP (CTL2-GFP)
T1 construct: L2/434/Bu GFP intracellular growth in HeLa cells
Set-up: species or system HeLa; C. trachomatis total inclusion area by high-content imaging, normalised to DMSO
Details: total inclusion area; 28.5 h, 10 µM; inhibitor
Outline: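 Imaging read-out: GFP inclusions and Hoechst nuclei captured by high-content imaging after fixation. Inclusion area/number = chlamydial growth; nuclei count = host cell viability. MIC calculated per earlier method.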

SMILES | % of control remaining
O=c1c(-c2ccco2)[n+]([O-])c2ccccc2n1OCc1ccccn1 [CBK266570] | 109.879
CC1(C)CC(=O)C2=C(C1)c1onc(N)c1C2Cc1ccccc1 (stereo not shown) [CBK269206] | 100.629
O=C(Cn1cnc2c(Cl)cc(Cl)cc2c1=O)N1CCCCCC1 [CBK305874] | 52.736
CSc1cc(-c2ccc(Cl)cc2)c(C(=O)O)s1 [CBK126740] | 73.1249
Cc1ccn(CCNC(=O)c2cc3ccc(F)cc3[nH]2)n1 [CBK283209] | 109.47
COC(=O)c1c(NC(=S)NNC(=O)c2nn(C)c(C)c2Br)sc2c1CCC(C)C2 (stereo not shown) [CBK267052] | 109.56
O=C(CN1CCCCC1)NN(Cc1ccccc1)c1ccccc1 [CBK261521G] | 100.854
Cc1cccc(C)c1NC(=O)CN(Cc1ccccc1)Cc1cc2ccc(C)c(C)c2[nH]c1=O [CBK122696T] | 61.3001
CC(Sc1ccc(Cl)cc1)C(=O)NCCN1CCOCC1 (stereo not shown) [CBK269316] | 107.264
CC1CCc2nc3ncn(CC(=O)NC4CC4)c(=O)c3cc2C1 (stereo not shown) [CBK294401] | 107.977
COc1ccc(Oc2nccc(N3CCCN(CCc4ccc5ccccc5c4)CC3)n2)cc1OC [CBK084164] | 96.427
COc1ccc(-c2cn(-c3ccc4c(c3)CCO4)nn2)cc1 [CBK113027] | 110.816
NC(=O)CN(Cc1ccc(Cl)cc1)S(=O)(=O)c1ccccc1 [CBK264149] | 98.8423
O=C(Nc1ccncc1)c1cccn(Cc2ccccc2F)c1=O [CBK287738] | 55.8837
O=C(COc1ccccc1)Nc1nccs1 [CBK058018] | 93.7132
Cc1cccnc1NC(=S)NC(=O)c1ccc([N+](=O)[O-])cc1 [CBK263931] | 107.005
CC[C@H]1CN(C(=O)c2cccnc2)CC[C@H]1CC(=O)NCc1ccc2c(c1)OCO2 [CBK288771] | 115.187
CC(=O)Nc1ccc(-c2cc(-c3ccc(NC(C)=O)cc3)nc(-c3ccc([N+](=O)[O-])cc3)n2)cc1 [CBK261273] | 94.8141
CCCN(Cc1cccs1)C1Cc2cc(OC)c(OC)cc2C1 [CBK017567C] | 52.5695
CS(=O)(=O)c1cccc(-c2cnc(NCCOc3ccccc3)c(C(=O)NCCc3ccccc3)c2)c1 [CBK076201] | 128.033
Cc1ccc(NS(=O)(=O)N(C)C)c(C)c1 [CBK005246] | 85.5423
Nc1nc(=O)c2cnc3c(F)cccc3c2s1 [CBK291249] | 136.401
